Hit rate of the full screen: of about 310,000 compounds, about 14,000 (4.5%) showed an effect of 50% or more. Effects have a minus sign here. This is one part of the list.
What follows are compounds tested against human ether-à-go-go-related gene (hERG) potassium channel (human, UniProt Q12809) (assay: primary screen, population patch clamp on CHO cells stably expressing hERG).
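Note: peak tail current of the secondary pulse compared with the same well before compound.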

Sequence of human ether-à-go-go-related gene (hERG) potassium channel (Q12809 whole entry, looked up): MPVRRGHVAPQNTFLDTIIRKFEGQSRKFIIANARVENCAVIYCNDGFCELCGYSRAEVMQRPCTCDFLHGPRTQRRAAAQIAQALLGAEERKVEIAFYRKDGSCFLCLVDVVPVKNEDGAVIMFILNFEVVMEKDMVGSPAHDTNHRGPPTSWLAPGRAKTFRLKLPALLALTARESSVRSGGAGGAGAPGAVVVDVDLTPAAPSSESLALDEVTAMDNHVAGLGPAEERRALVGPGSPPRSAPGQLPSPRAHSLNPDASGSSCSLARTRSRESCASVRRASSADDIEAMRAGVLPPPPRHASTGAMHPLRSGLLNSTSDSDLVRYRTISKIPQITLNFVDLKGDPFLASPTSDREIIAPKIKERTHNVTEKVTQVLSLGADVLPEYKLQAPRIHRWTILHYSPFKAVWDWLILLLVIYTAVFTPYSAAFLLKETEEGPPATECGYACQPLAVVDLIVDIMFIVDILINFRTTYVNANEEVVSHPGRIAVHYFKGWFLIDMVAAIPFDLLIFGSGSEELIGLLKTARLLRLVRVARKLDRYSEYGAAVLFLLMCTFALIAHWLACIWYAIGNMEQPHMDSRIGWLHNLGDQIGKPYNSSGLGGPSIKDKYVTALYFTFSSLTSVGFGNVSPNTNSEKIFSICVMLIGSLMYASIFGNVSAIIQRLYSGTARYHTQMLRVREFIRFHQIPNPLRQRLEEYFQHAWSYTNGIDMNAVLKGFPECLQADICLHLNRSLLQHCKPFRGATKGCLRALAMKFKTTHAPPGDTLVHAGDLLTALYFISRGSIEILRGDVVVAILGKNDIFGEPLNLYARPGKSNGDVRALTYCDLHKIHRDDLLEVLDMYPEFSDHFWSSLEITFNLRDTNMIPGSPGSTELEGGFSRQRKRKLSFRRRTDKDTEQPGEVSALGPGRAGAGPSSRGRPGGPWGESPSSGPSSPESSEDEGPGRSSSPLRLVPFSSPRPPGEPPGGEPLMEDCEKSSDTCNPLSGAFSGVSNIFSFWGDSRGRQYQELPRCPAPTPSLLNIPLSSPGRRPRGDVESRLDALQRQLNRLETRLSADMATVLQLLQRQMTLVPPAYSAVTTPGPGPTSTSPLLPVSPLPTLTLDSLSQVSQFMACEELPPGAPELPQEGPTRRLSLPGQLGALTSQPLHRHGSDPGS

Structure (SMILES) | hERG current change (%, negative = inhibition) at 10uM
Cc1ccc(N2CC(C(=O)OCC(=O)c3c(N)n(CC(C)C)c(=O)n(C)c3=O)CC2=O)cc1 (stereo not drawn) | -3.07%
OCC1OC(Oc2c[nH]c3ccccc23)C(O)C(O)C1O (stereo not drawn) | 51%
CCOC(=O)CNc1nc(Cl)nc(N2CCCCC2)n1 | 11.5%
CCCn1ccc2c(OCC(=O)Nc3ccc(NC(C)=O)cc3)cccc2c1=O | -5.81%
COc1cccc(CNS(=O)(=O)c2ccc3c(c2)CC(C)N3C(=O)C2CCC2)c1 (stereo not drawn) | -3.49%
CC1CCN(S(=O)(=O)c2ccc3c(c2)N(CC(=O)NCCCN2CCCCC2)C(=O)CS3)CC1 | -10.6%
Cc1ccc2[nH]c3c(c2c1)CN(C(=O)CN1c2ccc(F)cc2CCC1C)CC3 (stereo not drawn) | 12.5%
CCNC(=S)N/N=C/c1ccc(OCC(=O)Nc2ccc(C)cc2)cc1 | 4.81%
Cc1c(C(=O)Nc2nccs2)sc2nc(-c3cccs3)cc(C(F)(F)F)c12 | 18.8%
CC(C)c1nnc(NC(=O)CSc2nnc(NC(=O)c3c(F)cccc3F)s2)s1 | 0.313%
O=c1c(Cl)c(N2CCN(S(=O)(=O)c3ccccc3)CC2)cnn1-c1ccccc1 | 8.48%
Cc1ccc2cc(CCNC(=O)CC(C)(C)C)c(=O)[nH]c2c1C | 18.8%
COc1cccc(C(=O)O/N=C(\N)c2ccccn2)c1OC | 23.2%
O=C(COc1ccc(Cl)cc1)NCC(=O)N/N=C/c1cccs1 | 12%
CC1CCCC(NC(=O)COC(=O)/C=C/c2ccco2)C1C (stereo not drawn) | 9.6%
CCOC(=O)N1CCC(NC(=O)c2cc(C(=O)Nc3cccc(C(F)(F)F)c3)ccc2CO)CC1 | -4.19%
Cc1ccc(OCCCC(=O)ON=C(N)c2ccccc2C)cc1 | 8.18%
O=C(CCCn1c(=O)oc2ccccc21)N1CCN(c2ccc(F)cc2)CC1 | -63.9%
Cc1cccc(-c2nc(NCCCN3CCOCC3)c3ccccc3n2)c1 | -47.1%
Oc1ccccc1CNn1cnnc1 | 12.6%
NC(=O)c1nnn(-c2ccc([N+](=O)[O-])cc2)c1-c1ccccc1 | -20.2%
COc1ccc(C(=O)Nc2cc(C(F)(F)F)ccc2-n2cncn2)cc1 | -17.4%

Structure (SMILES) | hERG current change (%, negative = inhibition) at 10uM
Cc1ccc(-n2c(C)cc3c2CCCC3=O)cc1 | 4.5%
CCC(=O)NC(Nc1nc2ccc(C)cc2s1)(C(=O)OC)C(F)(F)F (stereo not drawn) | 3.55%
CCCSc1ccccc1C(=O)N1CCN(C(=O)c2ccco2)CC1 | 10.8%
COCCCN1C(=O)C(=O)/C(=C(/O)c2ccc(S(=O)(=O)N3CCCCC3)cc2)C1c1ccc(OC)cc1 (stereo not drawn) | 18.1%
COc1cc(/C=N/NC(=O)c2ccc(Cl)cc2)ccc1OCC(=O)N1CC(C)OC(C)C1 (stereo not drawn) | -18.3%
CN(C)S(=O)(=O)c1ccc(C(=O)Nc2ccc(OCC(=O)N3CCOCC3)cc2)cc1 | 13.9%
Cc1noc(C)c1S(=O)(=O)Nc1ccccc1N1CCOCC1 | -1.52%
O=C(NCCNC(=O)c1cc(Cl)ccc1Cl)c1ccccn1 | -12.2%
Cn1c(SCC(=O)N2CCOCC2)nnc1-c1ccc(Cl)cc1Cl | 17.8%
Cc1ccc(S(=O)(=O)CCSc2ccc(C(F)(F)F)cn2)cc1 | 0.342%
N#CCN1C(=O)C(=O)N(Cc2cccc(Cl)c2)C1=O | 15.4%
CN1/C(=C\C=C(/C#N)C(=O)Nc2ccccc2F)C(C)(C)c2ccccc21 | -24.4%
Cn1c(=NCC(O)COc2ccccc2)sc2ccccc21 (stereo not drawn) | -42.7%
NC(=O)c1ccc[n+](CC(=O)OCCC23CC4CC(CC(C4)C2)C3)c1.[Cl-] | 11.8%
CCOC(=O)[C@@H]1[C@H]2COc3cc(OC)ccc3[C@@H]2N2C(=O)N(c3cccc(Cl)c3)C(=O)[C@@]12C | 11.3%
O=C(NCCCN1CCN(c2ccc(F)cc2)CC1)C1CCCN(c2ncnc3c2nc2n3CCCCC2)C1 (stereo not drawn) | -66.3%
Cc1cc(C)n2nc(CC(=O)NCc3ccccc3Cl)nc2n1 | 0.407%
Cc1ccc(N(C)C(=O)N2CCN(c3ccccn3)CC2)cc1 | -3.77%
O=C(c1ccc(-n2cncn2)c([N+](=O)[O-])c1)N1CCN(S(=O)(=O)c2cccc(F)c2)CC1 | -71.9%
CCOc1c(Br)cc(/C=C2/SC(=O)N(CC(=O)N3CCCC3)C2=O)cc1OC | 5.25%
COc1ccc(NC(=O)CN(C)C(=O)c2ccc(N3CCOCC3)c([N+](=O)[O-])c2)cc1 | -46.3%
CN(C)CCC[C@@]1(c2ccc(F)cc2)OCc2cc(C#N)ccc21.O=C(O)C(=O)O | -49.9%

Structure (SMILES) | hERG current change (%, negative = inhibition) at 10uM
CCOc1ccc(N(CC(=O)N2CCN(c3ccc(F)cc3)CC2)S(=O)(=O)c2c(C)noc2C)cc1 | -27.2%
CN(CC1CCCO1)S(=O)(=O)c1ccc(C(=O)NCc2ccccc2)cc1 (stereo not drawn) | 4.32%
O=C(CSc1ccccc1)NNC(=O)c1ccccc1O | 19.1%
Nc1cccc(/C=C/C(=O)O)c1 | 20.1%
COc1ccc(/C=C/C(=O)N(CC(C)C)CC(C)C)cc1Br | -2.75%
N#C/C(C(=O)N1CCCCC1)=C1/N=C(NC(=O)c2ccc(F)cc2)c2ccccc21 | 19.3%
CCN(CC)S(=O)(=O)c1cccc(NC(=O)C2CC(=O)N(c3ccc4c(c3)OCCO4)C2)c1 (stereo not drawn) | -39.8%
Cc1cc[n+](CC(=O)N2CCCc3ccccc32)cc1.[Cl-] | 23.9%
O=C(CCn1c(=S)[nH]c2ccccc2c1=O)NCCc1ccc(Cl)cc1 | 5.03%
O=C(Nc1ccc(F)cc1F)c1cc2ccccc2oc1=O | 0.944%
O=C(Nc1ccc([N+](=O)[O-])cc1)Nc1ccc(N2CCOCC2)c2nonc12 | 17.6%
CCN(CC(=O)NC1CCS(=O)(=O)C1)S(=O)(=O)c1ccc(F)cc1 (stereo not drawn) | 18.9%
COc1ccc(CC(=O)N2N=C(c3ccncc3)CC2(O)C(F)(F)F)cc1 (stereo not drawn) | 0.84%
O=C(CNC(=O)c1ccc(Br)o1)NCc1ccccc1 | 6.66%
COc1ccccc1N(CC(=O)NCCSCc1ccco1)S(=O)(=O)c1ccccc1 | -26.6%
CCOC(=O)c1ccc(NC(=O)CSc2nnc(COc3ccccc3)n2C)cc1 | 3.57%
CCCCCC(O)c1cccc(OCc2ccc3ccccc3n2)c1 (stereo not drawn) | 13%
CN1CCN(C(=O)/C(=C/c2ccccc2)c2ccccc2)CC1 | -54.8%
Cc1c(Cl)cccc1NC(=O)CC1NCCNC1=O (stereo not drawn) | 14.4%
Cc1cccc(NC(=O)C2COc3ccccc3O2)c1 (stereo not drawn) | 11.6%
Cc1nc2ccccn2c1/C(O)=C1\C(=O)C(=O)N(CCN2CCOCC2)C1c1cccnc1 (stereo not drawn) | 22.7%
FC(F)(F)c1cnc(NNC(=S)Nc2ccccc2Cl)c(Cl)c1 | 8.48%

Structure (SMILES) | hERG current change (%, negative = inhibition) at 10uM
NC(=O)c1ccc(SCC(=O)OCC(=O)NC2CCCCCCC2)c([N+](=O)[O-])c1 | -1.95%
O=C(COC(=O)c1ccccc1NC(=O)c1ccco1)NC1CCS(=O)(=O)C1 (stereo not drawn) | -2.03%
C=CCNC(=O)Cn1nnc(-c2ccc(-c3ccc(OC)cc3)cc2)n1 | 19.9%
COc1ccccc1CNC(=O)C1CC(=O)N(C2CCCC2)C1 (stereo not drawn) | 3.29%
COc1ccc(C2=CC(=O)CC(C)(C)C2)cc1 | -2.21%
CN1CCN(C(=S)c2ccc(N(C)C)cc2)CC1 | 17.1%
O=C(N1CCN(c2ccccn2)CC1)C(Cl)(Cl)Cl | 1.01%
Cc1nc(-c2ccccn2)nc(N2CCOCC2)c1Cl | 5.21%
CC1CC(C)CN(S(=O)(=O)c2ccc3c(c2)CC(C)N3C(=O)C2CCC2)C1 (stereo not drawn) | 4.7%
Cc1ccc(/C=N/NC(=O)CNC(=O)COc2ccc(Cl)cc2)o1 | -4.35%
O=C(NCCc1ccccc1)C1CCCN(C(=O)NC2CCCCC2)C1 (stereo not drawn) | -2.39%
c1n[nH]c(SCCCCSc2ncn[nH]2)n1 | -3.39%
CCn1cc(/C=N/O)c(C)n1 | 16.3%
COC(=O)c1cc(N2C(=O)C3C4C=CC(CC4)C3C2=O)ccc1Cl (stereo not drawn) | 10.8%
COCc1cc(C)n(CC(=O)Nc2cc(C)cc(C)c2)c(=O)c1C#N | 4.07%
C=CCn1c(Cc2cccs2)nnc1SCC(=O)Nc1cc(OC)cc(OC)c1 | -27.8%
CCN(CC(=O)NC)S(=O)(=O)c1ccc(C)cc1 | 9.49%
Cc1ccccc1-n1nnnc1SCCCC(=O)c1ccc(F)cc1 | -12%
COc1ccc(-c2nn(-c3ccccc3)cc2C(=O)N(C)CC(=O)Nc2cccc(F)c2)cc1 | 3.07%
O=S(=O)(Nc1ccccc1N1CCOCC1)c1ccc(Cl)cc1 | -20.3%
CCC(=NCCC(c1ccccc1)c1ccccc1)c1c(O)n(C)c(=O)n(C)c1=O | -12%
